Assay results as given in PubChem BioAssay AID624417 (National Center for Advancing Translational Sciences (NCATS), 2012).
Among all 410,000 compounds or so, about 6,400 (1.6%) were called active. Inconclusive means that the source gave no clear call. Such entries were picked first, then a sample of the others. The call rests on the fitted dose curve; in most records, active means well fitted inhibition curve with a large enough effect; inconclusive means small, poorly fitted or top-dose-only effect; inactive means no such curve, though single readings can be large or run the other way. Potencies of inconclusive entries are doubtful fits and often do not repeat.

Target: Glucagon-like peptide 1 receptor (Homo sapiens) (UniProt P43220)
Sequence of UniProt P43220 (P43220 whole entry, looked up): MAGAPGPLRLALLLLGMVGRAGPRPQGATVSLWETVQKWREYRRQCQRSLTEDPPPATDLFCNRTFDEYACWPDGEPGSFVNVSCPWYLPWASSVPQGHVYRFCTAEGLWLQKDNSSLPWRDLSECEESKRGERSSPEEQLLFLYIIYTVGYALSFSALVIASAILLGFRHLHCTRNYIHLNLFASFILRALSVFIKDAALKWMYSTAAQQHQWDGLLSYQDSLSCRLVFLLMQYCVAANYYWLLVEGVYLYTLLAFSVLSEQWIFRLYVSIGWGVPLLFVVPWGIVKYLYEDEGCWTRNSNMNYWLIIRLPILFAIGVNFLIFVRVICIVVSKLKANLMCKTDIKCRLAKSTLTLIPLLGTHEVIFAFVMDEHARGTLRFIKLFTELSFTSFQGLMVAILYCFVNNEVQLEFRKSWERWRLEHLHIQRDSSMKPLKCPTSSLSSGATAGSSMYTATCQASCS
Test: qHTS of GLP-1 Receptor Inverse Agonists (Inhibition Mode); further: nearly all actives have a fitted effect of over 55% in size
Conditions: HEK293 GLP-1R CRE-luciferase, luminescence, 24 h; Potency: GLP-1R form is constitutively active unless noted; activity change, negative = inhibition: at 38.3 µM (top of the series) unless noted
Outline: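 Constitutively active GLP-1R drives a cAMP-responsive luciferase in stably transfected HEK293 cells; test compounds are added after overnight (12 h) attachment and left 24 hr, and signal loss in luminescence marks inhibition.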
On the % scale 0 is the no-effect control and ±100 the full control effect; potency means the concentration at half of the fitted maximal effect; tags describe the fitted curve by direction and shape.

| SMILES | Potency | activity change, negative = inhibition |
| --- | --- | --- |
| COC(=O)C1=C(c2cc3ccccc3s2)C[C@@H]2CC[C@H]1N2C(=O)NCCCOC(C)C | inconclusive: 28.2 µM [inhibitor, single point] | – |
| CCCCCCn1c(N)c(C(=O)NCCN2CCOCC2)c2nc3ccccc3nc21 | inconclusive: 15.8 µM [inhibitor, partial curve, poor fit] | – |
| Cc1cc(N2C(=O)CC(N3CCC(n4c(=O)[nH]c5ccccc54)CC3)C2=O)no1 (stereo unspecified) | – | inactive: 8.73% |
| Cc1ccc(C(=O)Nc2scc(-c3ccccc3)c2C(=O)O)cc1 | inconclusive: 10 µM [inhibitor, single point] | – |
| Nc1ccc2c3c(cccc13)-c1ccccc1-2 | inconclusive: 28.2 µM [inhibitor, partial curve, poor fit] | – |
| CC(C)(C)N1C(=O)NC(=O)/C(=C\c2ccc3c(c2)CCN3CCCCl)C1=O | – | inactive: 14.1% |
| NC1=C(Br)C(=O)c2ccccc2C1=O | inconclusive: 28.2 µM [inhibitor, single point] | – |
| Cc1ccsc1C(=O)C1CCCN(Cc2ccccc2O)C1 (stereo unspecified) | inconclusive: 11.2 µM [inhibitor, partial curve, poor fit] | – |
| C[C@@H]1CNC(=O)c2c(C(=O)Nc3cccc(Cl)c3)ncn21 | – | inactive: 26.9% [at 38.3 µM, GLP-1R form is constitutively active] |
| O=C(NCCN1CCC2(CC1)C(=O)NCN2c1cccc(F)c1)c1ccc2ccccc2c1 | active: 7.94 µM [setting not given] | – |
| Cc1c(Cl)cccc1NC(=O)c1oc2ccc(S(=O)(=O)N3CCC4(CC3)OCCO4)cc2c1C | inconclusive: 2.51 µM [inhibitor, full curve] | – |
| COc1ccc(-n2c(/C=C/c3ccc4c(c3)OCO4)nc3ccccc3c2=O)cc1 | inconclusive: 1.26 µM [inhibitor, full curve, poor fit] | – |
| O=C1C(=Cc2ccccc2)N2CCC1CC2 | inconclusive: 3.55 µM [inhibitor, partial curve] | – |
| CCOC(=O)c1c(C)n(Cc2ccc(F)cc2)c2ccc(O)cc12 | inconclusive: 28.2 µM [inhibitor, single point] | – |
| Fc1cccc(CN2CCN(c3ccc(Cl)cc3)CC2)c1 | inconclusive: 31.6 µM [inhibitor, single point] | – |
| COc1cccc(N2C(=O)NC(=O)/C(=C/c3ccc([N+](=O)[O-])s3)C2=O)c1 | – | inactive: 10.7% |
| O=S(=O)(c1cc(Cl)cc(Cl)c1)N1Cc2cc(-c3cccc(F)c3)ccc2-n2nncc2C1 | – | inactive: 11.9% |
| O=C(COc1ccc(Br)cc1)N1CCN(Cc2ccncc2)CC1 | inconclusive: 7.08 µM [inhibitor, partial curve, poor fit] | – |
| COC(=O)C1=C(c2cc3ccccc3o2)C[C@@H]2CC[C@H]1N2C(=O)NC1CCCCC1 | inconclusive: 11.2 µM [inhibitor, partial curve, poor fit] | – |
| COc1cc(C)c(CN2CC=C(c3ccc(F)cc3)CC2)cc1C | inconclusive: 2.82 µM [inhibitor, single point] | – |
| Cc1c(N=Cc2c(O)n(Cc3ccco3)c(=O)[nH]c2=O)c(=O)n(-c2ccccc2)n1C | – | inactive: 6.52% |

| SMILES | Potency | activity change, negative = inhibition |
| --- | --- | --- |
| CCc1ccc(CNC(=O)C2CCN(C(=O)c3ccc(-n4c(C)cc5ccccc54)s3)CC2)cc1 | inconclusive: 22.4 µM [inhibitor, single point] | – |
| O=C1/C(=C/c2ccccc2)C[C@@]2(O)[C@H]3Cc4ccc(O)c5c4[C@@]2(CCN3CC2CC2)C1O5 (stereo partly specified) | inconclusive: 2 µM [inhibitor, full curve, poor fit] | – |
| COc1ccccc1N1CCN(Cc2ccc(Br)s2)CC1 | inconclusive: 14.1 µM [inhibitor, single point] | – |
| COC(=O)[C@]12OC[C@]34C([C@@H](O)[C@@H]1O)[C@]1(C)CC(=O)C(O)=C(C)[C@@H]1C[C@H]3OC(=O)[C@H](O)[C@@H]24 (stereo partly specified) | inconclusive: 11.2 µM [inhibitor, single point] | – |
| O/N=C1/C(=C\c2ccccc2)N2CCC1CC2 | inconclusive: 22.4 µM [inhibitor, single point] | – |
| COC(=O)C1=C(c2ccc(OCc3ccccc3)cc2)C[C@@H]2CC[C@H]1N2C(=O)NCCCCc1ccccc1 | inconclusive: 6.31 µM [inhibitor, partial curve, poor fit] | – |
| CC/C(=N\NC(=O)c1ccccc1O)c1c(O)n(Cc2ccccc2)c(=O)[nH]c1=O | inconclusive: 5.62 µM [inhibitor, full curve, poor fit] | – |
| COc1cccc(Nc2nc(C(N)Cc3ccc(F)cc3)cs2)n1 (stereo unspecified) | inconclusive: 31.6 µM [inhibitor, single point] | – |
| COC(=O)C1=C(c2ccc(-c3ccccc3)c(F)c2)C[C@@H]2CC[C@H]1N2C(=O)N1CCc2cc(OC)c(OC)cc2C1 | inconclusive: 22.4 µM [inhibitor, single point] | – |
| COc1ccc(C(c2nnnn2CC2CCCO2)N2CCN(c3ccccc3)CC2)cc1 (stereo unspecified) | inconclusive: 3.98 µM [inhibitor, full curve] | – |
| CCCNc1nc(-c2cc(C(=O)Nc3ccccc3)on2)cc(C(C)C)n1 | inconclusive: 31.6 µM [inhibitor, partial curve, poor fit] | – |
| CCCCC1(CCCC)C(=O)NC(=Nc2cccc(C)c2)NC1=O | inconclusive: 28.2 µM [inhibitor, single point] | – |
| CCn1nc(C)c(CN2CCCC(C(=O)c3cccc(OC(C)C)c3)C2)c1C (stereo unspecified) | inconclusive: 20 µM [inhibitor, partial curve, poor fit] | – |
| O=C(CCN1CCCCC1)Nc1ccc(Br)cc1C(=O)c1ccccc1 | inconclusive: 12.6 µM [inhibitor, single point] | – |
| CC(=O)N(C1=NCCCS1)c1ccc(Cl)cc1 | inconclusive: 28.2 µM [inhibitor, single point] | – |
| Cc1nc2ccccc2c(=O)n1-c1nccs1 | – | inactive: 35.7% |
| Cc1cc2cc(CNC(=O)Nc3ccc(Cl)c(Cl)c3)ccc2n1C | inconclusive: 22.4 µM [inhibitor, single point] | – |
| Clc1ccc(-c2nc3ccc(Cl)cn3c2CN2CCOCC2)cc1 | inconclusive: 12.6 µM [inhibitor, partial curve, poor fit] | – |
| O=C(COc1ccccc1)N1CCN(Cc2c[nH]c3ccccc23)CC1 | inconclusive: 3.16 µM [inhibitor, partial curve, poor fit] | – |
| COC(=O)C1=C(c2cccc(Cl)c2)C[C@@H]2CC[C@H]1N2C(=O)N1CCCC1 | inconclusive: 28.2 µM [inhibitor, single point] | – |
| Cc1cnc(C)c(Nc2nc(C(N)Cc3ccc(C(F)(F)F)cc3)cs2)n1 (stereo unspecified) | inconclusive: 28.2 µM [inhibitor, single point] | – |

| SMILES | Potency | activity change, negative = inhibition |
| --- | --- | --- |
| O=C(c1ccc(Cl)cc1)C1CCCN(Cc2cccc3ncccc23)C1 (stereo unspecified) | inconclusive: 7.94 µM [inhibitor, partial curve, poor fit] | – |
| O=C(CNC(=O)c1ccc(Cl)cc1)Nc1ccc(Br)cc1C(=O)c1ccccc1 | inconclusive: 12.6 µM [inhibitor, partial curve, poor fit] | – |
| C=C1C2[C@H](OC(C)=O)[C@@H]3CC(=O)[C@]4(C)OC[C@@]3(C)[C@@]4(O)[C@@H](OC(C)=O)[C@H](OC(C)=O)[C@@]2(COC(=O)c2ccccc2)[C@@H](OC(C)=O)C[C@@H]1O (stereo partly specified) | inconclusive: 11.2 µM [inhibitor, single point] | – |
| CS(=O)(=O)c1ccc(C2=C(CNC(=O)c3cccs3)[C@H]3CC[C@@H](C2)N3Cc2ccccc2)cc1 | – | inactive: 11% |
| Cc1nccc2c1[nH]c1ccccc12 | – | inconclusive: -39.3% [inhibitor] [at 38.3 µM, GLP-1R form is constitutively active] |
| CC[n+]1c(/C=C/C=C/c2ccc(N(C)C)cc2)sc2ccccc21 | inconclusive: 3.98 µM [inhibitor, partial curve, poor fit] | – |
| Cc1ccc(OCC(=O)Nc2ccc(Cl)cc2C(=O)c2ccccc2)cc1C | – | inactive: 9.77% |
| O=P(NC1CCCCC1)(Oc1ccccc1)Oc1ccccc1 | inconclusive: 3.55 µM [inhibitor, partial curve, poor fit] | – |
| CCOc1ccc(CC(=O)NCCc2csc3nc(-c4ccccc4F)nn23)cc1 | – | inactive: 53.9% [at 38.3 µM, GLP-1R form is constitutively active] |
| O=c1c2ccccc2nc(-c2ccc(Cl)cc2Cl)n1-c1nccs1 | inconclusive: 11.2 µM [inhibitor, single point] | – |
| CCCN1CCc2cccc3c2[C@H]1Cc1ccc(O)c(O)c1-3 | – | inactive: -10.7% |
| Clc1ccccc1CN1CCN(c2ccccc2)CC1 | – | inactive: 0% |
| C[C@@H]1CN([C@H](C)CO)C(=O)c2c(c3ccccc3n2C)-c2ccccc2CO[C@H]1CN(C)C(=O)Cc1ccccc1 | inconclusive: 28.2 µM [inhibitor, single point] | – |
| CCN(CC)C(=O)c1ccc(NC(=O)COc2ccc([N+](=O)[O-])cc2Cl)cc1 | inconclusive: 28.2 µM [inhibitor, single point] | – |
| Fc1ccc(CCNCc2ccc(Cl)c(Cl)c2)cc1 | inconclusive: 11.2 µM [inhibitor, single point] | – |
| O=c1[nH]c2ccccc2n1C1CCN(Cc2ccc(-c3[nH]c4cc5ncnc5cc4nc3-c3ccccc3)cc2)CC1 | inconclusive: 2 µM [inhibitor, full curve] | – |
| CSc1ccccc1C(=O)C1CCCN(Cc2cccc(C)n2)C1 (stereo unspecified) | active: 11.2 µM | – |
| COc1ccc(C(=O)OC2C[C@H]3CC[C@H](C2)N3C)cc1OC (stereo partly specified) | inconclusive: 10 µM [inhibitor, single point] | – |
| O=c1[nH]c2ccccc2n1C1CCN(C(c2cccc3ccccc23)c2nnnn2-c2ccc3c(c2)OCCO3)CC1 (stereo unspecified) | inconclusive: 2.51 µM [inhibitor, full curve] | – |
